# The campaign covered roughly 410,000 compounds. About 7,200 (1.8%) were called active. The inconclusive results got no clear call from the source; some entries with a clear call stand among them for comparison. The call rests on the fitted dose curve; in most records, active means well fitted activation curve with a large enough effect; inconclusive means small, poorly fitted or top-dose-only effect, or another doubt; inactive means no such curve, though single readings can be large or run the other way. Potencies of inconclusive entries are left out as doubtful fits.
# Assay: qHTS of TDP-43 Inhibitors; further: nearly all actives have a fitted effect of over 50% in size; on growth rescue (activation): % of control where 0% means no effect
# Details: TDP-43 expressing yeast growth rescue, BacTiter-Glo, 24 h; growth rescue (activation): at 46.1 µM (top of the series) unless noted
# In short: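 Readout is BacTiter-Glo luminescence of cell growth, so inhibitors register as activators. TDP-43-expressing yeast at OD600=0.02 in galactose medium, after raffinose pregrowth to mid-log, were incubated with compound for 24 hr at 30 deg C.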
# Potency means the concentration at half of the fitted maximal effect; tags describe the fitted curve by direction and shape.
Structure (SMILES),Potency,growth rescue (activation)
Cc1nc(Nc2ccccc2)sc1C(=O)c1ccc(F)cc1,active: 22.4 µM,–
COc1ccc(C(=O)Nc2ccc(Cl)c(S(=O)(=O)Nc3ccccc3OC)c2)cc1,"inconclusive [activator, partial curve, poor fit]",–
COc1ccccc1NC(=O)NCCc1ccccc1,"inconclusive [activator, partial curve]",–
Cc1ccc(NS(=O)(=O)c2cc3c4c(cccc4c2)C(=O)NC3=O)cc1,–,inactive: -3.85%
Cc1cc(C(=O)N2CCc3ccccc32)n(-c2ccccc2)n1,"inconclusive [activator, partial curve]",–
CCOc1ccc(C(=O)C(C)OC(=O)Cn2cnc3c2c(=O)n(C)c(=O)n3C)cc1 (stereo not drawn),–,inactive: 20.9%
COc1ccc(Cl)cc1Cn1c(C)c(C(=O)N(C)Cc2ccc(F)cc2)sc1=O,active: 22.4 µM,–
Cc1ccccc1C(=O)NCc1nc(-c2ccc(Cl)cc2)no1,"inconclusive [activator, single point]",–
CN1CCSc2ccc(C(=O)Nc3cc(F)ccc3F)cc21,"inconclusive [activator, single point]",–
O=C(NC(=S)NCCc1ccccc1)C1CCCCC1,"inconclusive [activator, partial curve]",–
COc1ccccc1NC(=O)CN(c1cc(C)cc(C)c1)S(=O)(=O)c1c(C)[nH]c(=O)[nH]c1=O,–,inactive: 0.729%
Cc1ccc(Sc2ncnc3onc(C)c23)c(C)c1,"inconclusive [activator, single point]",–
CN(C)C(=S)Nc1ccc(Br)c(Cl)c1,"inconclusive [activator, partial curve]",–
CCc1nnc(SCc2nc(-c3cccc(Cl)c3)oc2C)c2cc3sc(C)cc3n12,–,inactive: 28.3%
COc1cccc(NC(=O)CN(C)C(=O)c2cc(Cl)nc3ccccc23)c1,–,inactive: 14.2%
O=C(c1ccco1)N1CCN(c2ccc([N+](=O)[O-])cn2)CC1,"inconclusive [activator, single point]",–
Nc1ccccc1Nc1cc(-c2ccccc2)nn1-c1cccc(Cl)c1,"inconclusive [activator, partial curve]",–
CN(C(=O)CSc1nc2ncccc2o1)c1ccc(F)cc1,–,inactive: 19.4%
C=CCNc1nc(-c2ccccn2)nnc1-c1ccccc1,"inconclusive [activator, single point]",–
O=C(COc1ccccc1)Nc1ccc(OCc2cc(=O)n3ccsc3n2)cc1,"inconclusive [activator, partial curve]",–
Cc1ccc(-c2nc3ccc(Cl)cc3c(=O)n2O)cc1,–,inactive: -43.5%
O=C(c1ccco1)N1CCN(c2ncnc3sc4c(c23)CCC4)CC1,"inconclusive [activator, single point]",–
COc1ccc(OC)c(NC(=O)C2CCN(S(=O)(=O)c3ccc(C)cc3)CC2)c1,"inconclusive [activator, partial curve]",–

Structure (SMILES),Potency,growth rescue (activation)
CCN1C(=O)[C@H]2[C@@H](c3ccc(-c4ccc(Cl)c(Cl)c4)cc3)N3CCCC[C@@]3(C(=O)OC)[C@H]2C1=O,–,inactive: 12.7%
Cc1cccc(NC2=C(Cl)C(=O)OC2OC(C)C)c1 (stereo not drawn),active: 12.6 µM,–
COC(=O)C1CCN(C(=O)Cc2c(OC)ccc3cc(Br)ccc23)CC1,"inconclusive [activator, single point]",–
COc1ccc(-c2cc(C(=O)N(C)CC(=O)Nc3ccccc3Cl)c3ccccc3n2)cc1OC,"inconclusive [activator, single point]",–
Cc1ccc(NC(=O)COC(=O)c2cc(Cl)ccc2[N+](=O)[O-])cc1,active: 17.8 µM,–
COc1ccc(N2CCN(C(=O)c3c(-c4c(F)cccc4Cl)noc3C)CC2)cc1,"inconclusive [activator, single point]",–
O=C1c2ccccc2C(=O)c2c1ccc(O)c2O,–,inactive: -70.3%
c1ccc(CSc2nnnn2-c2ccccc2)cc1,"inconclusive [activator, single point]",–
Cc1ccnc(NC(=O)c2ccc(N3C(=O)CCC3=O)cc2)c1,–,inactive: -3.18%
CC(C)(C)c1ccc(C(=O)NCC(=O)OCC(=O)c2ccc3c(c2)-c2ccccc2C3)cc1,"inconclusive [activator, single point]",–
O=c1c2ccccc2n(Cc2cccc(Cl)c2)c(=O)n1CCc1ccccc1,–,inactive: 0%
COc1ccc(-c2cc(C(C)=O)c(C)n2CCC(=O)Nc2cc(C)ccc2OC)cc1,"inconclusive [activator, single point]",–
Cc1ccc(N=C2NC(=O)/C(=C/c3cccnc3)S2)c(C)c1,"inconclusive [activator, partial curve]",–
CCOC(=O)c1cc(OC(=O)c2cccc(C)c2)n(-c2ccccc2)n1,"inconclusive [activator, partial curve]",–
Cc1ccc(-c2cc(-c3ccc(Cl)cc3)c(C#N)c(N)n2)o1,"inconclusive [activator, single point]",–
CCn1cc(C(=O)NCCCN2CC(C)CC(C)C2)c2cc(OC)c(OC)cc2c1=O (stereo not drawn),"inconclusive [activator, partial curve]",–
CCOC(=O)C[C@H]1c2ccc(C(F)(F)F)cc2S(=O)(=O)N1c1ccccc1,"inconclusive [activator, single point]",–
CCCOc1ccc(F)cc1-c1cc(C(=O)NCc2ccccc2OC)[nH]n1,active: 35.5 µM,–
O=C(CSc1nnc(-c2n[nH]c3ccccc23)n1-c1ccccc1)Nc1ccccc1Cl,"inconclusive [activator, partial curve]",–
NC(=O)c1ccccc1NC(=O)/C=C/c1cccc(Cl)c1,"inconclusive [activator, partial curve]",–
COc1ccc(C/C(N)=N/OC(=O)c2ccc(Cl)cc2)cc1,"inconclusive [activator, single point]",–
C=CC[C@H](CC(=O)NCCO)C(=O)NCCOC(=O)[C@@H](CC=C)CC(=O)OC(C)(C)C,"inconclusive [activator, partial curve]",–
COc1ccccc1NC(=O)COc1ccc(CO)cc1Cl,"inconclusive [activator, partial curve]",–

Structure (SMILES),Potency,growth rescue (activation)
O=C1CCSC2(C(=O)N(Cc3ccc(F)cc3)c3ccccc32)N1c1ccccc1 (stereo not drawn),"inconclusive [activator, single point]",–
Cc1cc(NC(=O)CCC(=O)N(c2ccccc2)C(C(=O)NC2CCCC2)c2ccccc2F)no1 (stereo not drawn),–,inactive: -6.57%
CCCC(=O)O[C@H]1C[C@@H](C)N(C(=O)c2ccccc2)c2ccc(C)cc21,"inconclusive [activator, single point]",–
C#CCN1Cc2ccccc2Oc2cc(Br)ccc2S1(=O)=O,"inconclusive [activator, single point]",–
Cc1ccc(COc2ccc(-c3nnco3)cc2)cc1,"inconclusive [activator, partial curve]",–
O=C(c1ccc(S(=O)(=O)c2ccccc2)cc1)N1CCc2ccccc2C1,"inconclusive [activator, partial curve]",–
O=C(CC[C@H]1O[C@@H](n2ccc(=O)[nH]c2=O)[C@H](O)[C@@H]1O)NCC(c1ccccc1)c1ccccc1,"inconclusive [activator, partial curve]",–
CNC(=S)N1CCN(c2c(F)cc3c(=O)c(C(=O)O)cn(C4CC4)c3c2OC)CC1C (stereo not drawn),–,inactive: 4.39%
O=C(NC(=S)Nc1cc(Cl)ccc1N1CCOCC1)c1ccccc1[N+](=O)[O-],"inconclusive [activator, partial curve]",–
COc1ccc(-c2noc(C3CC(=O)N(c4ccc(C)c(F)c4)C3)n2)c(OC)c1 (stereo not drawn),active: 12.6 µM,–
O=C(NNC(=S)NC(=O)C12CC3CC(CC(C3)C1)C2)c1ccncc1,–,inconclusive: -56.9% [activator]
O=C(c1cc2ccccc2o1)N(Cc1nnc(-c2ccccc2Cl)o1)C1CC1,"inconclusive [activator, single point]",–
CCOc1ccc(Nc2n[nH]c(=S)s2)cc1,"inconclusive [activator, single point]",–
COc1ccc(-n2cc(-c3ccccc3)c3c(SC(C)C(C)=O)ncnc32)cc1 (stereo not drawn),"inconclusive [activator, single point]",–
CCc1ccc(NS(=O)(=O)c2ccc3[nH]cc(C(=O)NC4CCCC4)c(=O)c3c2)cc1,–,inactive: 11.2%
CN(Cc1ccccc1)C(=S)Nc1ccc(OC(F)F)cc1,"inconclusive [activator, partial curve]",–
CCc1cccc(NC(=O)CSC2=NS(=O)(=O)c3ccccc32)c1,"inconclusive [activator, single point]",–
Cc1cc(C)c2c(=O)c(C#N)coc2c1,–,inconclusive: -56.8% [activator]
Oc1ccc(C[C@H]2CNC(=S)N2CC2CCCN2C[C@H](Cc2ccc(O)cc2)N2C[C@H](Cc3ccccc3)N(CC3CCCCC3)C2=S)cc1 (stereo partly drawn),"inconclusive [activator, partial curve]",–
O=C(COC(=O)c1cc(Cl)ccc1[N+](=O)[O-])Nc1cccc2ccccc12,active: 20 µM,–
COc1ccc(OCc2cc(/C=N\NC(=O)c3ccccc3)ccc2OC)cc1,"inconclusive [activator, single point]",–
Cc1ccc(NC(=O)CN2C(=O)CCc3cc(S(=O)(=O)N4CCOCC4)ccc32)c(C)c1,–,inactive: 0%
